# Measurements from the supplement of paper PMC8728848.
# Some of the results follow.
# B1: Epa13 (Candida glabrata) (protein)
# chain: MGSSHHHHHHSSGLVPRGSHMASDSSENGYAHGCSPSIRAKLKPGLSMEIYSYALRPTDDHCWDSAYLDPMFPRTGYLTHKLLGKAEGIIGPLNFLAKNPACIPAVSTLPLAFHFPKPFTITNFTMLLYGYLSPKKTGKYTFKLLADDLLLMNFGADNAFDCCSHDATKDNIGEYVAYSVWPGVNKNVTVYLESGIYYPLRLFFNNRDAIAQLDFAYYFNDSPIRQTDFSGMFFSIPDSVKCPANI
# Key:
# Experiment in all cases: glycan array binding signal (z-score within array); higher = stronger binding
# Conditions in all cases: glycan notation: IUPAC condensed, linker removed
# [1] = target: GlcNAc(b1-2)[GlcNAc(b1-4)]Man(a1-3)[GlcNAc(b1-4)][GlcNAc(b1-2)[GlcNAc(b1-6)]Man(a1-6)]Man(b1-4)GlcNAc(b1-4)GlcNAc
# How it was run: (§1)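 The binding signal is a Z-score computed within each array and averaged over linkers. Arrays of the same protein sequence at different concentrations or buffers were also averaged together. Data originate from 3228 arrays in the Consortium for Functional Glycomics database, kept only where the protein sequence was available.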
# [2] = target: GlcNAc(b1-2)[GlcNAc(b1-4)]Man(a1-3)[GlcNAc(b1-4)][GlcNAc(b1-2)[GlcNAc(b1-6)]Man(a1-6)]Man(b1-4)GlcNAc(b1-4)[Fuc(a1-6)]GlcNAc
# How it was run: as §1
# [3] = target: GlcNAc(b1-2)[GlcNAc(b1-6)]Man(a1-6)[GlcNAc(b1-2)Man(a1-3)]Man(b1-4)GlcNAc(b1-4)GlcNAc
# How it was run: as §1
# [4] = target: GlcNAc(b1-2)[GlcNAc(b1-6)]Man(a1-6)[GlcNAc(b1-2)Man(a1-3)]Man(b1-4)GlcNAc(b1-4)[Fuc(a1-6)]GlcNAc
# How it was run: as §1
# [5] = target: GlcNAc(b1-2)[GlcNAc(b1-6)]Man(a1-6)[GlcNAc(b1-4)][GlcNAc(b1-2)Man(a1-3)]Man(b1-4)GlcNAc(b1-4)GlcNAc
# How it was run: as §1
# GlcNAc(b1-3)Fuc = target: GlcNAc(b1-3)Fuc
# How it was run: as §1
# GlcNAc(b1-3)Gal = target: GlcNAc(b1-3)Gal
# How it was run: as §1
# [6] = target: GlcNAc(b1-3)Gal(b1-3)GalNAc
# How it was run: as §1
# GlcNAc(b1-3)Gal(b1-4)Glc = target: GlcNAc(b1-3)Gal(b1-4)Glc
# How it was run: as §1
# [7] = target: GlcNAc(b1-3)Gal(b1-4)GlcNAc
# How it was run: as §1
# [8] = target: GlcNAc(b1-3)Gal(b1-4)GlcNAc(b1-2)Man(a1-3)[GlcNAc(b1-3)Gal(b1-4)GlcNAc(b1-2)Man(a1-6)]Man(b1-4)GlcNAc(b1-4)GlcNAc
# How it was run: as §1
# [9] = target: GlcNAc(b1-3)Gal(b1-4)GlcNAc(b1-2)Man(a1-3)[GlcNAc(b1-3)Gal(b1-4)GlcNAc(b1-2)Man(a1-6)]Man(b1-4)GlcNAc(b1-4)[Fuc(a1-6)]GlcNAc
# How it was run: as §1
# [10] = target: GlcNAc(b1-3)Gal(b1-4)GlcNAc(b1-2)[GlcNAc(b1-3)Gal(b1-4)GlcNAc(b1-6)]Man(a1-6)[GlcNAc(b1-3)Gal(b1-4)GlcNAc(b1-2)Man(a1-3)]Man(b1-4)GlcNAc(b1-4)GlcNAc
# How it was run: as §1
# [11] = target: GlcNAc(b1-3)Gal(b1-4)GlcNAc(b1-3)Gal(b1-4)GlcNAc
# How it was run: as §1
# [12] = target: GlcNAc(b1-3)Gal(b1-4)GlcNAc(b1-3)Gal(b1-4)GlcNAc(b1-2)Man(a1-3)[GlcNAc(b1-3)Gal(b1-4)GlcNAc(b1-3)Gal(b1-4)GlcNAc(b1-2)Man(a1-6)]Man(b1-4)GlcNAc(b1-4)GlcNAc
# How it was run: as §1
# [13] = target: GlcNAc(b1-3)Gal(b1-4)GlcNAc(b1-3)Gal(b1-4)GlcNAc(b1-2)Man(a1-3)[GlcNAc(b1-3)Gal(b1-4)GlcNAc(b1-3)Gal(b1-4)GlcNAc(b1-2)Man(a1-6)]Man(b1-4)GlcNAc(b1-4)[Fuc(a1-6)]GlcNAc
# How it was run: as §1
# [14] = target: GlcNAc(b1-3)Gal(b1-4)GlcNAc(b1-3)Gal(b1-4)GlcNAc(b1-2)[GlcNAc(b1-3)Gal(b1-4)GlcNAc(b1-3)Gal(b1-4)GlcNAc(b1-6)]Man(a1-6)[GlcNAc(b1-3)Gal(b1-4)GlcNAc(b1-3)Gal(b1-4)GlcNAc(b1-2)Man(a1-3)]Man(b1-4)GlcNAc(b1-4)[Fuc(a1-6)]GlcNAc
# How it was run: as §1
# [15] = target: GlcNAc(b1-3)Gal(b1-4)GlcNAc(b1-3)Gal(b1-4)GlcNAc(b1-3)Gal(b1-4)GlcNAc(b1-2)Man(a1-3)[GlcNAc(b1-3)Gal(b1-4)GlcNAc(b1-3)Gal(b1-4)GlcNAc(b1-3)Gal(b1-4)GlcNAc(b1-2)Man(a1-6)]Man(b1-4)GlcNAc(b1-4)GlcNAc
# How it was run: as §1
# [16] = target: GlcNAc(b1-3)Gal(b1-4)GlcNAc(b1-3)Gal(b1-4)GlcNAc(b1-3)Gal(b1-4)GlcNAc(b1-2)Man(a1-3)[GlcNAc(b1-3)Gal(b1-4)GlcNAc(b1-3)Gal(b1-4)GlcNAc(b1-3)Gal(b1-4)GlcNAc(b1-2)Man(a1-6)]Man(b1-4)GlcNAc(b1-4)[Fuc(a1-6)]GlcNAc
# How it was run: as §1
# [17] = target: GlcNAc(b1-3)Gal(b1-4)GlcNAc(b1-3)Gal(b1-4)GlcNAc(b1-3)Gal(b1-4)GlcNAc(b1-2)[GlcNAc(b1-3)Gal(b1-4)GlcNAc(b1-3)Gal(b1-4)GlcNAc(b1-3)Gal(b1-4)GlcNAc(b1-6)]Man(a1-6)[GlcNAc(b1-3)Gal(b1-4)GlcNAc(b1-3)Gal(b1-4)GlcNAc(b1-3)Gal(b1-4)GlcNAc(b1-2)Man(a1-3)]Man(b1-4)GlcNAc(b1-4)[Fuc(a1-6)]GlcNAc
# How it was run: as §1
# [18] = target: GlcNAc(b1-3)Gal(b1-4)GlcNAc(b1-3)Gal(b1-4)GlcNAc(b1-3)Gal(b1-4)GlcNAc(b1-3)Gal(b1-4)GlcNAc(b1-2)Man(a1-3)[GlcNAc(b1-3)Gal(b1-4)GlcNAc(b1-3)Gal(b1-4)GlcNAc(b1-3)Gal(b1-4)GlcNAc(b1-3)Gal(b1-4)GlcNAc(b1-2)Man(a1-6)]Man(b1-4)GlcNAc(b1-4)GlcNAc
# How it was run: as §1
# [19] = target: GlcNAc(b1-3)Gal(b1-4)GlcNAc(b1-3)Gal(b1-4)GlcNAc(b1-3)Gal(b1-4)GlcNAc(b1-3)Gal(b1-4)GlcNAc(b1-2)Man(a1-3)[GlcNAc(b1-3)Gal(b1-4)GlcNAc(b1-3)Gal(b1-4)GlcNAc(b1-3)Gal(b1-4)GlcNAc(b1-3)Gal(b1-4)GlcNAc(b1-2)Man(a1-6)]Man(b1-4)GlcNAc(b1-4)[Fuc(a1-6)]GlcNAc
# How it was run: as §1
# [20] = target: GlcNAc(b1-3)Gal(b1-4)GlcNAc(b1-3)Gal(b1-4)GlcNAc(b1-3)Gal(b1-4)GlcNAc(b1-3)Gal(b1-4)GlcNAc(b1-2)[GlcNAc(b1-3)Gal(b1-4)GlcNAc(b1-3)Gal(b1-4)GlcNAc(b1-3)Gal(b1-4)GlcNAc(b1-3)Gal(b1-4)GlcNAc(b1-6)]Man(a1-6)[GlcNAc(b1-3)Gal(b1-4)GlcNAc(b1-3)Gal(b1-4)GlcNAc(b1-3)Gal(b1-4)GlcNAc(b1-3)Gal(b1-4)GlcNAc(b1-2)Man(a1-3)]Man(b1-4)GlcNAc(b1-4)[Fuc(a1-6)]GlcNAc
# How it was run: as §1
# [21] = target: GlcNAc(b1-3)Gal(b1-4)GlcNAc(b1-3)Gal(b1-4)GlcNAc(b1-3)GalNAc
# How it was run: as §1
# [22] = target: GlcNAc(b1-3)Gal(b1-4)GlcNAc(b1-3)GalNAc
# How it was run: as §1
# [23] = target: GlcNAc(b1-3)Gal(b1-4)GlcNAc(b1-3)[GlcNAc(b1-3)Gal(b1-4)GlcNAc(b1-3)]GalNAc
# How it was run: as §1
# [24] = target: GlcNAc(b1-3)Gal(b1-4)GlcNAc(b1-6)[Gal(b1-3)]GalNAc
# How it was run: as §1
# [25] = target: GlcNAc(b1-3)Gal(b1-4)GlcNAc(b1-6)[GlcNAc(b1-3)Gal(b1-3)]GalNAc
# How it was run: as §1
# [26] = target: GlcNAc(b1-3)Gal(b1-4)GlcNAc(b1-6)[GlcNAc(b1-3)]Gal(b1-4)GlcNAc
# How it was run: as §1
# GlcNAc(b1-3)GalNAc = target: GlcNAc(b1-3)GalNAc
# How it was run: as §1
# GlcNAc(b1-3)Man = target: GlcNAc(b1-3)Man
# How it was run: as §1
# [27] = target: GlcNAc(b1-3)[GlcNAc(b1-4)][GlcNAc(b1-6)]GlcNAc
# How it was run: as §1
# [28] = target: GlcNAc(b1-3)[GlcNAc(b1-6)]Gal(b1-4)GlcNAc
# How it was run: as §1
# [29] = target: GlcNAc(b1-3)[GlcNAc(b1-6)]GalNAc
# How it was run: as §1
# [30] = target: GlcNAc(b1-4)Gal(b1-4)GlcNAc
# How it was run: as §1
# GlcNAc(b1-4)GlcNAc = target: GlcNAc(b1-4)GlcNAc
# How it was run: as §1
# [31] = target: GlcNAc(b1-4)GlcNAc(b1-4)GlcNAc
# How it was run: as §1
# [32] = target: GlcNAc(b1-4)GlcNAc(b1-4)GlcNAc(b1-4)GlcNAc(b1-4)GlcNAc
# How it was run: as §1
binder,measurement,setting,value
B1,glycan array binding signal (z-score),[1],-0.275
same,glycan array binding signal (z-score),[2],-0.346
same,glycan array binding signal (z-score),[3],-0.545
same,glycan array binding signal (z-score),[4],-0.456
same,glycan array binding signal (z-score),[5],-0.418
same,glycan array binding signal (z-score),GlcNAc(b1-3)Fuc,-0.055
same,glycan array binding signal (z-score),GlcNAc(b1-3)Gal,-0.445
same,glycan array binding signal (z-score),[6],-0.023
same,glycan array binding signal (z-score),GlcNAc(b1-3)Gal(b1-4)Glc,-0.135
same,glycan array binding signal (z-score),[7],-0.306
same,glycan array binding signal (z-score),[8],-0.353
same,glycan array binding signal (z-score),[9],-0.222
same,glycan array binding signal (z-score),[10],0.485
same,glycan array binding signal (z-score),[11],-0.069
same,glycan array binding signal (z-score),[12],0.456
same,glycan array binding signal (z-score),[13],0.201
same,glycan array binding signal (z-score),[14],-0.03
same,glycan array binding signal (z-score),[15],-0.119
same,glycan array binding signal (z-score),[16],0.212
same,glycan array binding signal (z-score),[17],0.144
same,glycan array binding signal (z-score),[18],0.07
same,glycan array binding signal (z-score),[19],-0.207
same,glycan array binding signal (z-score),[20],0.231
same,glycan array binding signal (z-score),[21],-0.275
same,glycan array binding signal (z-score),[22],-0.134
same,glycan array binding signal (z-score),[23],0.07
same,glycan array binding signal (z-score),[24],-0.08
same,glycan array binding signal (z-score),[25],0.106
same,glycan array binding signal (z-score),[26],-0.3
same,glycan array binding signal (z-score),GlcNAc(b1-3)GalNAc,-0.291
same,glycan array binding signal (z-score),GlcNAc(b1-3)Man,-0.27
same,glycan array binding signal (z-score),[27],-0.177
same,glycan array binding signal (z-score),[28],-0.346
same,glycan array binding signal (z-score),[29],-0.52
same,glycan array binding signal (z-score),[30],-0.349
same,glycan array binding signal (z-score),GlcNAc(b1-4)GlcNAc,0.063
same,glycan array binding signal (z-score),[31],-0.335
same,glycan array binding signal (z-score),[32],-0.06
